Data on 39 variants can be found in the RNAGym collection of RNA variant scans (doi:10.7554/elife.90254).

The source gives no read counts; variants with many changes may rest on few reads.

Sequences and labels used below:
B1: LINE1-full (parent)
chain: UACGUAGGUGGUUUUCCCCUGAUAGUGCUAAGGGGGCCUGGAAGUUUGGACUGGGCAGAGCUCAACACAGCGUGGCAAAGUGGCUGUGGCUAGACUGCCUCUCUGGAUUCCUCGUCACUCAGCAGGGCAUCUCUGAGAGAAAUGCC

In this data set the parent is B1. Briefly: self-cleavage, relative activity (ratio to wild type); higher = more cleavage; in vitro, sequencing; the parent is a self-cleaving ribozyme.
Regarding UACGUAGGUGGUUUUCCCCUGAUAGUGCUAAGGGGGCCUGGAAGUUUGGACUGGGCAGAGCUCAACACAGCGUGGCAAAGUGGCUGUGGCUAGACUGCCUCUCCGGAUUCCUCGUCAGUCAGCAGGGCAUCUCUGAGAGAGAUGCC [U104C C118G A141G], the self-cleavage turned out to be 1.36.
The value for UACGUAGGUGGUUUUCCCCUGAUAGUGCUAAGGGGGCCUGGAAGUUUGGACUGGGCAGAGCUCAACACAGCGUGGCAAAGUGGCUGUGGCUAGACUGCCUCACUGGGUUCCUCGUCACUCAGCAGGGCAUCUCUGAGAGAAGCGCC [U102A A107G A142G U143C] was 0.56; that for UACGUAGGUGGUUUUCCCCUGAUAGUGCUAAGGGGGCCUGGAAGUUUGGACUGGGCAGAGCUCAACACAGCGUGGCAAAGUGGCUGUGGCUAGACUGCCUCUCCUGAUUCCUCGCCACUCAGCAGGGCAUCUCUGAGAGAAAUGCC [U104C G105U U115C] was 2.15; that for UACGUAGGUGGUUUUCCCCUGAUAGUGCUAAGGGGGCCUGGAAGUUUGGACUGGGCAGAGCUCAACACAGCGUGGCAAAGUGGCUGUGGCUAGACUGCCUCCCUGGAUUCCUCGUCACUCAGCUGGGCAUCUCUGAGAGAAGUGCC [U102C A124U A142G] was 0.79.
For UACGUAGGUGGUUUUCCCCUGAUAGUGCUAAGGGGGCCUGGAAGUUUGGACUGGGCAGAGCUCAACACAGCGUGGCAAAGUGGCUGUGGCUAGACUGCCUCCCUGGAUUCCCCGUCACUCAGCAGGGCAUCUCUGAGAGAAGUGCC [U102C U112C A142G], the self-cleavage turned out to be 1.15.
For UACGUAGGUGGUUUUCCCCUGAUAGUGCUAAGGGGGCCUGGAAGUUUGGACUGGGCAGAGCUCAACACAGCGUGGCAAAGUGGCUGUGGCUAGACUGCCUCUCCCGAUUCCUCGUCACUCAGCAGGGCAUCACUGAGAGAAAUGCC [U104C G105C U132A], the self-cleavage turned out to be 1.23.
Next, UACGUAGGUGGUUUUCCCCUGAUAGUGCUAAGGGGGCCUGGAAGUUUGGACUGGGCAGAGCUCAACACAGCGUGGCAAAGUGGCUGUGGCUAGACUGCCUCCCCGGAUCCCUCGUCACUCAGCAGGGCAUCUCUGAGAGAAAUGCC [U102C U104C U109C]: 1.23; UACGUAGGUGGUUUUCCCCUGAUAGUGCUAAGGGGGCCUGGAAGUUUGGACUGGGCAGAGCUCAACACAGCGUGGCAAAGUGGCUGUGGCUAGACUGCCUCUCAGGAUUCCUCGACACUCAGCAGGGCAUCUCUGGGAGAAAUGCC [U104A U115A A136G]: 1.85; UACGUAGGUGGUUUUCCCCUGAUAGUGCUAAGGGGGCCUGGAAGUUUGGACUGGGCAGAGCUCAACACAGCGUGGCAAAGUGGCUGUGGCUAGACUGCCCCUCUGGAUGCCUCGUCACUCAGCAGGGCAUCUCUGAGAGGAAUGCC [U100C U109G A140G]: 1.15.
For the variant UACGUAGGUGGUUUUCCCCUGAUAGUGCUAAGGGGGCCUGGAAGUUUGGACUGGGCAGAGCUCAACACAGCGUGGCAAAGUGGCUGUGGCUAGACUGCCCCUCCGGAUUCCUCGUCACUCAGCAGGGCAUCUCUGAGAGAGAUGCC [U100C U104C A141G], the self-cleavage came out at 2.3.
With UACGUAGGUGGUUUUCCCCUGAUAGUGCUAAGGGGGCCUGGAAGUUUGGACUGGGCAGAGCUCAACACAGCGUGGCAAAGUGGCUGUGGCUAGACUGCCUUUCUGGAUUCCCCGUCACUCAGCAGGGCAUCUCUGAGAGAAGUGCC [C101U U112C A142G], the self-cleavage amounted to 2.04.
The value for UACGUAGGUGGUUUUCCCCUGAUAGUGCUAAGGGGGCCUGGAAGUUUGGACUGGGCAGAGCUCAACACAGCGUGGCAAAGUGGCUGUGGCUAGACUGCCUCUCCGGAUUCCUCGCCACUCAGCAGGGCAUCUCUGAGUGAAAUGCC [U104C U115C A138U] was 0; that for UACGUAGGUGGUUUUCCCCUGAUAGUGCUAAGGGGGCCUGGAAGUUUGGACUGGGCAGAGCUCAACACAGCGUGGCAAAGUGGCUGUGGCUAGACUGCCUCUCCUGAUUCCUCGCCACCCAGCAGGGCAUCUCUGAGAGAAAUGCC [U104C G105U U115C U119C] was 2.42.
Take UACGUAGGUGGUUUUCCCCUGAUAGUGCUAAGGGGGCCUGGAAGUUUGGACUGGGCAGAGCUCAACACAGCGUGGCAAAGUGGCUGUGGCUAGACUGCCUCUCCGGAUACCUCGUCACUCAGCUGGGCAUCUCUGAGAGAGAUGCC [U104C U109A A124U A141G]: the self-cleavage is 1.78.
Next, UACGUAGGUGGUUUUCCCCUGAUAGUGCUAAGGGGGCCUGGAAGUUUGGACUGGGCAGAGCUCAACACAGCGUGGCAAAGUGGCUGUGGCUAGACUGCCUCUCAGGAUCCCUCGUCACUCAGCAGGGCAUCUCAGAGAGAAGUGCC [U104A U109C U134A A142G]: 1.91.
In the case of UACGUAGGUGGUUUUCCCCUGAUAGUGCUAAGGGGGCCUGGAAGUUUGGACUGGGCAGAGCUCAACACAGCGUGGCAAAGUGGCUGUGGCUAGACUGCCCCUCUGGAUCCCUCGUCACCCAGCAGGGCAUCUCUGAGAGAAAUGCC [U100C U109C U119C], the self-cleavage stood at 0.
For the variant UACGUAGGUGGUUUUCCCCUGAUAGUGCUAAGGGGGCCUGGAAGUUUGGACUGGGCAGAGCUCAACACAGCGUGGCAAAGUGGCUGUGGCUAGACUGCCUCACUGGAUUCCUCGUCACACAGCAGGGCAUCUCUGAGGGAAAUGCC [U102A U119A A138G], the self-cleavage is 2.07.
Regarding UACGUAGGUGGUUUUCCCCUGAUAGUGCUAAGGGGGCCUGGAAGUUUGGACUGGGCAGAGCUCAACACAGCGUGGCAAAGUGGCUGUGGCUAGACUGCCUAUCUGGAUUCCUCGUCACUCAGCAGGCCAUCACUGGGAGAAAUACC [C101A G127C U132A A136G G144A], the self-cleavage came out at 0.
As for UACGUAGGUGGUUUUCCCCUGAUAGUGCUAAGGGGGCCUGGAAGUUUGGACUGGGCAGAGCUCAACACAGCGUGGCAAAGUGGCUGUGGCUAGACUGCCUCUCAGGAUUCCCCGUCACUCAGCAGAGCAUCUCGGAGAGAAAAGCC [U104A U112C G126A U134G U143A], the self-cleavage was found to be 1.56.
The value for UACGUAGGUGGUUUUCCCCUGAUAGUGCUAAGGGGGCCUGGAAGUUUGGACUGGGCAGAGCUCAACACAGCGUGGCAAAGUGGCUGUGGCUAGACUGCCUCACUGGAUUCUUCGUCACUCAGCAGGGCAUCUCAGAGAGAAAUGCC [U102A C111U U134A] was 1.34; that for UACGUAGGUGGUUUUCCCCUGAUAGUGCUAAGGGGGCCUGGAAGUUUGGACUGGGCAGAGCUCAACACAGCGUGGCAAAGUGGCUGUGGCUAGACUGCCUUUCUGGAUUCCUCGUCACCCAGCAGGGCAUCUCUGAGAGUAAUGCC [C101U U119C A140U] was 1.36; that for UACGUAGGUGGUUUUCCCCUGAUAGUGCUAAGGGGGCCUGGAAGUUUGGACUGGGCAGAGCUCAACACAGCGUGGCAAAGUGGCUGUGGCUAGACUGCCUCCCUGGAUUCCUCGUCACUCAGCAGGGCAUCUCCGAGAGAGAUGCC [U102C U134C A141G] was 1.58.
Next, UACGUAGGUGGUUUUCCCCUGAUAGUGCUAAGGGGGCCUGGAAGUUUGGACUGGGCAGAGCUCAACACAGCGUGGCAAAGUGGCUGUGGCUAGACUGCCUCUAUGGAUUCCUCGUCACUCAGCAGGGCUCCUCUGAGAGAAAUGCC [C103A A129U U130C]: 0.92; UACGUAGGUGGUUUUCCCCUGAUAGUGCUAAGGGGGCCUGGAAGUUUGGACUGGGCAGAGCUCAACACAGCGUGGCAAAGUGGCUGUGGCUAGACUGCCUCUCAGGAUUCCUCGCCACUCAGCAGGGCAUCUCUGAGAGAAACGCC [U104A U115C U143C]: 0.41.
Consider UACGUAGGUGGUUUUCCCCUGAUAGUGCUAAGGGGGCCUGGAAGUUUGGACUGGGCAGAGCUCAACACAGCGUGGCAAAGUGGCUGUGGCUAGACUGCCCCUCUGGAUUCCCCGUCACUCAGCAGGGCAUCUCUGAGAGGAAUGCC [U100C U112C A140G], for which the self-cleavage worked out at 2.33.
UACGUAGGUGGUUUUCCCCUGAUAGUGCUAAGGGGGCCUGGAAGUUUGGACUGGGCAGAGCUCAACACAGCGUGGCAAAGUGGCUGUGGCUAGACUGCCUCUCAGGAUUCCUCGUCACUCAGCAGGGCAUCUCUGGGAGAAACGCC [U104A A136G U143C]: the self-cleavage came to 1.36.
With UACGUAGGUGGUUUUCCCCUGAUAGUGCUAAGGGGGCCUGGAAGUUUGGACUGGGCAGAGCUCAACACAGCGUGGCAAAGUGGCUGUGGCUAGACUGCCUCUCAGGAUUCCUCGUCACUCAGCAGGGCAUCUCUGAGAGGGAUGCC [U104A A140G A141G], the self-cleavage worked out at 1.29.
As to UACGUAGGUGGUUUUCCCCUGAUAGUGCUAAGGGGGCCUGGAAGUUUGGACUGGGCAGAGCUCAACACAGCGUGGCAAAGUGGCUGUGGCUAGACUGCCUCCCUGGAUUCCUCGUCACUCAGCUGGGCGUCUCUGAGAGAAAUGCC [U102C A124U A129G], the self-cleavage is 1.76.
For the variant UACGUAGGUGGUUUUCCCCUGAUAGUGCUAAGGGGGCCUGGAAGUUUGGACUGGGCAGAGCUCAACACAGCGUGGCAAAGUGGCUGUGGCUAGACUGCCUCUCAGGAUUCCUCGUCACUCAGCAGGGCAUCUCUGAGUGGAAUGCC [U104A A138U A140G], the self-cleavage was determined as 1.73.
UACGUAGGUGGUUUUCCCCUGAUAGUGCUAAGGGGGCCUGGAAGUUUGGACUGGGCAGAGCUCAACACAGCGUGGCAAAGUGGCUGUGGCUAGACUGCCUCCCUGGAUUCCUCGACACUCAGCAGGGCAUCUCUGGGAGAAAUGCC [U102C U115A A136G]: the self-cleavage was determined as 1.27.
For the variant UACGUAGGUGGUUUUCCCCUGAUAGUGCUAAGGGGGCCUGGAAGUUUGGACUGGGCAGAGCUCAACACAGCGUGGCAAAGUGGCUGUGGCUAGACUGCCCCUCUGGAUUCCUCGUCACUCAGCAGGGCAUCUCAGAGAGUAAUGCC [U100C U134A A140U], the self-cleavage stood at 1.7.
The value for UACGUAGGUGGUUUUCCCCUGAUAGUGCUAAGGGGGCCUGGAAGUUUGGACUGGGCAGAGCUCAACACAGCGUGGCAAAGUGGCUGUGGCUAGACUGCCUCUCCGGAUUCCUCGUCACUCUGCAGGGCAUCUCUGAGAGAGAUGCC [U104C A121U A141G] was 1.49; that for UACGUAGGUGGUUUUCCCCUGAUAGUGCUAAGGGGGCCUGGAAGUUUGGACUGGGCAGAGCUCAACACAGCGUGGCAAAGUGGCUGUGGCUAGACUGCCUCUUUGGAUUCCUCGUCGCUCAACAGGGCAUCUCUGAGAGAAAUGCC [C103U A117G G122A] was 1.62; that for UACGUAGGUGGUUUUCCCCUGAUAGUGCUAAGGGGGCCUGGAAGUUUGGACUGGGCAGAGCUCAACACAGCGUGGCAAAGUGGCUGUGGCUAGACUGCCUCUCAGGAUCCCUCGUCACUCGGCGGGGCAUCUCUGAGAGAAAUGCC [U104A U109C A121G A124G] was 0.
As for UACGUAGGUGGUUUUCCCCUGAUAGUGCUAAGGGGGCCUGGAAGUUUGGACUGGGCAGAGCUCAACACAGCGUGGCAAAGUGGCUGUGGCUAGACUGCCUCUUUGGAUUCCUCGUCGCUCAGCAGGGCGUCUCUGAGAGAAAUGCC [C103U A117G A129G], the self-cleavage is 1.68.
On to UACGUAGGUGGUUUUCCCCUGAUAGUGCUAAGGGGGCCUGGAAGUUUGGACUGGGCAGAGCUCAACACAGCGUGGCAAAGUGGCUGUGGCUAGACUGCCUCUCGGGAUUCCUCGUCACUCAGCAGGGCAUCUCUGAGAGAAGAGCC [U104G A142G U143A], for which the self-cleavage was found to be 1.87.
The value for UACGUAGGUGGUUUUCCCCUGAUAGUGCUAAGGGGGCCUGGAAGUUUGGACUGGGCAGAGCUCAACACAGCGUGGCAAAGUGGCUGUGGCUAGACUGCCUCACUGGAUUCCUCGUCACACAGCAGGGCAUCUCUGAGAGGAAUGCC [U102A U119A A140G] was 1.58; that for UACGUAGGUGGUUUUCCCCUGAUAGUGCUAAGGGGGCCUGGAAGUUUGGACUGGGCAGAGCUCAACACAGCGUGGCAAAGUGGCUGUGGCUAGACUGCCUCCCUGGAUUCCUCGUCACUCAGCAGGGCACCUCUGAGAGAAGUGCC [U102C U130C A142G] was 0.84.
Regarding UACGUAGGUGGUUUUCCCCUGAUAGUGCUAAGGGGGCCUGGAAGUUUGGACUGGGCAGAGCUCAACACAGCGUGGCAAAGUGGCUGUGGCUAGACUGCCCCUCUGGAUUCCUCGACACUCAGCAGGGCACCUCUGAGAGAAAUGCC [U100C U115A U130C], the self-cleavage was 1.53.
